# Assay results from PubChem BioAssay AID686979 (National Center for Advancing Translational Sciences (NCATS), 2013).
# Screen size: about 420,000 compounds; about 50,000 (12%) were called active. Inconclusive results, whose numbers are uncertain, are shown with a selection of clear calls. The call rests on the fitted dose curve; in most records, active means well fitted inhibition curve with a large enough effect; inconclusive means small, poorly fitted or top-dose-only effect; inactive means flat fitted curve, though single readings scatter. No potency is given beside an inconclusive call; the fits are too rough.
# Test: qHTS for Inhibitors of human tyrosyl-DNA phosphodiesterase 1 (TDP1): qHTS in cells in presence of CPT; further: nearly all actives have a fitted effect of over 55% in size
# Settings: chicken DT40 Tdp1-/-;hTDP1 cells + 20 nM CPT, ATP luminescence, 48 h; activity change, negative = growth inhibition: at 46.2 µM (top of the series) unless noted
# Outline: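 Chicken DT40 Tdp1-/- cells stably complemented with human TDP1 were seeded at 400 cells/well in medium containing 20 nM camptothecin, exposed to pin-transferred compounds, and grown at 37 °C for at least 48 hr. Viability was read as ATP luminescence.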
# On the % scale 0 is the no-effect control and ±100 the full control effect; potency means the concentration at half of the fitted maximal effect; tags describe the fitted curve by direction and shape.
SMILES,"activity change, negative = growth inhibition",Potency
COC(=O)c1sccc1NC(=O)COc1ccc(Cl)cc1Cl,inactive: -5.15%,–
Cc1ccc(Cl)c(OCC(=O)Nc2ccc(S(=O)(=O)NC3=NCCCCC3)cc2)c1,–,"inconclusive [inhibitor, partial curve]"
Cc1ccc(C(=O)N2CCN(c3ncnc4c(C)csc34)CC2)cc1,–,"inconclusive [inhibitor, partial curve]"
COc1ccc(NC(=O)c2ccc(NC3=NC4CS(=O)(=O)CC4S3)cc2)cc1 (configuration not stated),inactive: -1.31%,–
CCN(CC)S(=O)(=O)c1cc(NC(=O)C2Cc3ccccc3C(=O)O2)ccc1C (configuration not stated),–,"inconclusive [inhibitor, single point]"
CCOC(=O)N1CCc2c(sc(NCc3cccs3)c2C(=O)Nc2cc(Cl)ccc2OC)C1,–,"inconclusive [inhibitor, single point]"
O=C(NCc1cccs1)c1cccc2c(-c3cccnc3)coc12,–,"inconclusive [inhibitor, single point]"
S=C(NC1CCCC1)N1CCN(c2cccc(Cl)c2)CC1,–,"inconclusive [inhibitor, partial curve, poor fit]"
CN(Cc1ccccc1)C(=O)c1ccc(NC(=O)Cc2ccc(NC(=O)C3CCCN(C(=O)CCc4ccccc4)C3)cc2)cc1 (configuration not stated),–,active: 10.3 µM
COc1ccc(CCNC(=O)CNCCc2ccc(F)cc2)cc1,inactive: -18.7%,–
Cc1cc(Cl)nc2nc(Cl)ccc12,–,"inconclusive [inhibitor, full curve, poor fit]"
O=C(Nc1ccc([N+](=O)[O-])cc1)Nc1cnccn1,–,"inconclusive [inhibitor, single point]"
CC(=O)c1ccc(NC(=O)CSc2nnc(NC(=O)c3ccco3)s2)cc1,inactive: -5.84%,–
O=C(NCCc1ccccc1)c1cc(=O)c2ccccc2o1,inactive: -8.11%,–
CN(Cc1cccc(Cl)c1Cl)CC(O)COc1ccccc1 (configuration not stated),–,"inconclusive [inhibitor, single point]"
CCOC(=O)C1=C(C)Nc2nnnn2C1c1ccc(OC)c(Br)c1 (configuration not stated),–,"inconclusive [inhibitor, single point]"
CC(=O)c1cccc(-c2ccnc3c2CC(C(=O)Nc2cccc(N(C)C)c2)O3)c1 (configuration not stated),–,"inconclusive [inhibitor, single point]"
CCOC(=O)C1(CCOc2ccccc2)CCN(Cc2ccc(COC)o2)CC1,–,active: 7.31 µM
Cc1nn(C(C)C(=O)NCCc2cccs2)c(=O)c2nn(-c3ccccc3)c(C)c12 (configuration not stated),inactive: 10.4%,–
COc1cccc(-c2ccc3ncnc(NCCc4c[nH]c5ccc(OC)cc45)c3c2)c1,–,active: 23.1 µM
CCCn1c(C(=O)OC)cc2c1ccn2-c1ccc(F)cc1,–,"inconclusive [inhibitor, partial curve, poor fit]"
S=c1[nH]nc2c3c4c(sc3ncn12)CCCC4,inactive: -7.17%,–
S=C(NCc1ccc2c(c1)OCO2)NCc1ccc2c(c1)OCO2,inactive: 2.57%,–
Cc1ccc(NC(=O)Cn2c(=O)n(Cc3ccco3)c(=O)c3sc4ccccc4c32)c(C)c1,–,"inconclusive [inhibitor, single point]"

SMILES,"activity change, negative = growth inhibition",Potency
CC(C)(C)OC(=O)N1CCC(c2c(C(=O)N3CCN(c4ccccn4)CC3)cnn2-c2cccc(F)c2)CC1,–,active: 18.4 µM
COc1ccc(/C=C/c2nc(-c3ccccc3O)n[nH]2)cc1,inactive: -2.28%,–
COc1ccc(N2C(=O)/C(=C\c3ccco3)N=C2SCC(=O)NC(C)C)cc1Cl,inactive: 8.19%,–
CCOc1ccc(CCNC(=O)c2cc(-c3ccccc3)c(N3CCOCC3)s2)cc1OCC,–,"inconclusive [inhibitor, single point]"
Nc1cc(=O)[nH]c(SCC(=O)Nc2ccccc2Sc2ccccc2)n1,–,"inconclusive [inhibitor, partial curve, poor fit]"
Cn1c(=O)[nH]c(=O)c2c1nc(Br)n2CC(O)c1ccccc1 (configuration not stated),inactive: 0.493%,–
CCOC(=O)c1c(CSc2ccccc2)oc2ccc(O)cc12,–,"inconclusive [inhibitor, single point]"
Cc1c(NC(=O)C(C)OC(=O)[C@@H](NC(=O)c2ccccc2)C(C)C)c(=O)n(-c2ccccc2)n1C (some centres not stated),inactive: -0.295%,–
C=CCn1c(SCC(=O)N2CCOCC2)nc(O)c(Cc2ccccc2)c1=O,–,"inconclusive [inhibitor, single point]"
Cc1cccc(C)c1Nc1ncnc(N)c1[N+](=O)[O-],inactive: 0.427%,–
Cc1ccc(NC(=O)NCc2ccc3c(c2)OCO3)cc1C,inactive: 5.09%,–
CN1C2C=CC(=O)C1C1C(=O)N(c3ccccc3)C(=O)C12 (configuration not stated),–,active: 18.4 µM
CC(OC(=O)c1ccc(-n2cnnn2)cc1)C(=O)Nc1ccccc1[N+](=O)[O-] (configuration not stated),–,"inconclusive [inhibitor, single point]"
CC(C)(C)NC(=O)C(c1ccncc1)n1c(-c2ccc(C(F)(F)F)cc2)nc2ccccc21 (configuration not stated),–,"inconclusive [inhibitor, single point]"
O=C1CC(c2ccsc2)c2cc3c(cc2N1)OCCO3 (configuration not stated),–,"inconclusive [inhibitor, partial curve]"
CCOC(=O)c1ccc(NS(=O)(=O)c2ccc3c(c2)CCN3C(=O)CC)cc1,–,active: 13 µM
CCOC(=O)c1c(C)c(-c2ccccc2)n(CC(=O)NCc2ccccc2)c1C,–,"inconclusive [inhibitor, single point]"
COc1cc(N2CCC(O)CC2)ccc1Nc1nnc(Cl)c(Nc2ccccc2S(C)(=O)=O)n1,–,active: 20.6 µM
Cc1ccc(C(=O)NCC(c2ccco2)S(=O)(=O)c2ccccc2)cc1C (configuration not stated),–,"inconclusive [inhibitor, single point]"
O=C(Nc1c2c(nn1-c1ccc(Cl)cc1)CS(=O)(=O)C2)C1CC1,inactive: -0.588%,–
COc1cc2c(=O)c(S(=O)(=O)c3ccc(C(C)C)cc3)cn(Cc3ccccc3C)c2cc1OC,–,active: 6.51 µM
CCCCOC(=O)Nc1nnc(/C=C/c2ccc(OC)cc2)s1,–,"inconclusive [inhibitor, partial curve]"
O=C(NC1CCN(Cc2ccccc2)CC1)c1c(Cl)cccc1Cl,inactive: 4.27%,–
